Measured values from the supplement of paper PMC9151546.
Many values rest on one well or one pass, so single values are uncertain.

Tests used:
CHO-K1 [1] = assay: hypodiploid nuclei frequency (% of nucleated events); higher = more hypodiploid events (aneugenic)
Experimental: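 Flow-cytometric in vitro micronucleus assay (Litron MicroFlow) in CHO-K1 cells in 96-well plates, 19 concentrations (4.5-200 µM, n=1 per concentration). Without S9, cells were exposed for 24 h and sampled at 48 h. With Aroclor 1254-induced rat liver S9, cells were exposed for 3-4 h and sampled at 27-28 h. Read-outs are %MN and %hypodiploid nuclei relative to nucleated events, and relative survival as the nuclei-to-bead ratio versus the 1% DMSO vehicle control (x100).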

CHO-K1 [2] = assay: micronucleus frequency (% of nucleated events); higher = more micronuclei (genotoxic)
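For hypodiploid nuclei frequency (% of nucleated events) in this document: hypodiploid nuclei gated on a flow cytometer with 488 nm excitation after SYTOX Green staining, cultures at 37 °C, positive controls vinblastine without S9 and cyclophosphamide with S9.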
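For micronucleus frequency (% of nucleated events) in this document: cells lysed with nuclei stained by SYTOX Green, then micronucleus-gated events counted against nucleated events by flow cytometry with 488 nm excitation.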

NC(=O)N/N=C/c1ccc([N+](=O)[O-])o1 [Nitrofurazone]
Conditions	hypodiploid nuclei frequency, S9 metabolic activation: with S9, exposure time: 3-4 hours [%]	hypodiploid nuclei frequency, S9 metabolic activation: without S9, exposure time: 24 hours [%]	micronucleus frequency, S9 metabolic activation: with S9, exposure time: 3-4 hours [%]	micronucleus frequency, S9 metabolic activation: without S9, exposure time: 24 hours [%]
CHO-K1 [1], concentration: 33.6 (µM)	0.44	0.76	–	–
CHO-K1 [1], concentration: 41.9 (µM)	0.18	0.6	–	–
CHO-K1 [1], concentration: 52.4 (µM)	0.18	0.74	–	–
CHO-K1 [1], concentration: 65.5 (µM)	0.14	1.16	–	–
CHO-K1 [1], concentration: 81.9 (µM)	0.28	1.14	–	–
CHO-K1 [1], concentration: 102 (µM)	0.52	1.36	–	–
CHO-K1 [1], concentration: 128 (µM)	0.22	1.06	–	–
CHO-K1 [1], concentration: 160 (µM)	0.24	1.68	–	–
CHO-K1 [1], concentration: 200 (µM)	0.22	1.08	–	–
CHO-K1 [2], concentration: 4.5 (µM)	–	–	1.32	2.02
CHO-K1 [2], concentration: 5.63 (µM)	–	–	1.6	1.36
CHO-K1 [2], concentration: 7.04 (µM)	–	–	1.7	1.68
CHO-K1 [2], concentration: 8.8 (µM)	–	–	1.5	1.62
CHO-K1 [2], concentration: 11 (µM)	–	–	1.48	1.6
CHO-K1 [2], concentration: 13.7 (µM)	–	–	1.5	1.52
CHO-K1 [2], concentration: 17.2 (µM)	–	–	1.56	2.14
CHO-K1 [2], concentration: 21.5 (µM)	–	–	1.78	1.68
CHO-K1 [2], concentration: 26.8 (µM)	–	–	1.68	2.44
CHO-K1 [2], concentration: 33.6 (µM)	–	–	1.88	2.72
CHO-K1 [2], concentration: 41.9 (µM)	–	–	1.04	3.04
CHO-K1 [2], concentration: 52.4 (µM)	–	–	1.76	2.78
CHO-K1 [2], concentration: 65.5 (µM)	–	–	1.54	3.88
CHO-K1 [2], concentration: 81.9 (µM)	–	–	1.48	3.42
CHO-K1 [2], concentration: 102 (µM)	–	–	1.64	5.38
CHO-K1 [2], concentration: 128 (µM)	–	–	1.68	4.72
CHO-K1 [2], concentration: 160 (µM)	–	–	1.56	5.14
CHO-K1 [2], concentration: 200 (µM)	–	–	2	5.42
